Numbering of substitutions follows the chain as printed. No constants are given. Whether binding was seen depends on the method and setting. In cells and extracts the contact can be indirect. Some binding calls cover weakened binding; strength is not graded here. Where a sequence is shown, tags or fusion partners need not be part of it.

Amino acid sequences for entries named in this document (tags omitted).
UniProt P42858: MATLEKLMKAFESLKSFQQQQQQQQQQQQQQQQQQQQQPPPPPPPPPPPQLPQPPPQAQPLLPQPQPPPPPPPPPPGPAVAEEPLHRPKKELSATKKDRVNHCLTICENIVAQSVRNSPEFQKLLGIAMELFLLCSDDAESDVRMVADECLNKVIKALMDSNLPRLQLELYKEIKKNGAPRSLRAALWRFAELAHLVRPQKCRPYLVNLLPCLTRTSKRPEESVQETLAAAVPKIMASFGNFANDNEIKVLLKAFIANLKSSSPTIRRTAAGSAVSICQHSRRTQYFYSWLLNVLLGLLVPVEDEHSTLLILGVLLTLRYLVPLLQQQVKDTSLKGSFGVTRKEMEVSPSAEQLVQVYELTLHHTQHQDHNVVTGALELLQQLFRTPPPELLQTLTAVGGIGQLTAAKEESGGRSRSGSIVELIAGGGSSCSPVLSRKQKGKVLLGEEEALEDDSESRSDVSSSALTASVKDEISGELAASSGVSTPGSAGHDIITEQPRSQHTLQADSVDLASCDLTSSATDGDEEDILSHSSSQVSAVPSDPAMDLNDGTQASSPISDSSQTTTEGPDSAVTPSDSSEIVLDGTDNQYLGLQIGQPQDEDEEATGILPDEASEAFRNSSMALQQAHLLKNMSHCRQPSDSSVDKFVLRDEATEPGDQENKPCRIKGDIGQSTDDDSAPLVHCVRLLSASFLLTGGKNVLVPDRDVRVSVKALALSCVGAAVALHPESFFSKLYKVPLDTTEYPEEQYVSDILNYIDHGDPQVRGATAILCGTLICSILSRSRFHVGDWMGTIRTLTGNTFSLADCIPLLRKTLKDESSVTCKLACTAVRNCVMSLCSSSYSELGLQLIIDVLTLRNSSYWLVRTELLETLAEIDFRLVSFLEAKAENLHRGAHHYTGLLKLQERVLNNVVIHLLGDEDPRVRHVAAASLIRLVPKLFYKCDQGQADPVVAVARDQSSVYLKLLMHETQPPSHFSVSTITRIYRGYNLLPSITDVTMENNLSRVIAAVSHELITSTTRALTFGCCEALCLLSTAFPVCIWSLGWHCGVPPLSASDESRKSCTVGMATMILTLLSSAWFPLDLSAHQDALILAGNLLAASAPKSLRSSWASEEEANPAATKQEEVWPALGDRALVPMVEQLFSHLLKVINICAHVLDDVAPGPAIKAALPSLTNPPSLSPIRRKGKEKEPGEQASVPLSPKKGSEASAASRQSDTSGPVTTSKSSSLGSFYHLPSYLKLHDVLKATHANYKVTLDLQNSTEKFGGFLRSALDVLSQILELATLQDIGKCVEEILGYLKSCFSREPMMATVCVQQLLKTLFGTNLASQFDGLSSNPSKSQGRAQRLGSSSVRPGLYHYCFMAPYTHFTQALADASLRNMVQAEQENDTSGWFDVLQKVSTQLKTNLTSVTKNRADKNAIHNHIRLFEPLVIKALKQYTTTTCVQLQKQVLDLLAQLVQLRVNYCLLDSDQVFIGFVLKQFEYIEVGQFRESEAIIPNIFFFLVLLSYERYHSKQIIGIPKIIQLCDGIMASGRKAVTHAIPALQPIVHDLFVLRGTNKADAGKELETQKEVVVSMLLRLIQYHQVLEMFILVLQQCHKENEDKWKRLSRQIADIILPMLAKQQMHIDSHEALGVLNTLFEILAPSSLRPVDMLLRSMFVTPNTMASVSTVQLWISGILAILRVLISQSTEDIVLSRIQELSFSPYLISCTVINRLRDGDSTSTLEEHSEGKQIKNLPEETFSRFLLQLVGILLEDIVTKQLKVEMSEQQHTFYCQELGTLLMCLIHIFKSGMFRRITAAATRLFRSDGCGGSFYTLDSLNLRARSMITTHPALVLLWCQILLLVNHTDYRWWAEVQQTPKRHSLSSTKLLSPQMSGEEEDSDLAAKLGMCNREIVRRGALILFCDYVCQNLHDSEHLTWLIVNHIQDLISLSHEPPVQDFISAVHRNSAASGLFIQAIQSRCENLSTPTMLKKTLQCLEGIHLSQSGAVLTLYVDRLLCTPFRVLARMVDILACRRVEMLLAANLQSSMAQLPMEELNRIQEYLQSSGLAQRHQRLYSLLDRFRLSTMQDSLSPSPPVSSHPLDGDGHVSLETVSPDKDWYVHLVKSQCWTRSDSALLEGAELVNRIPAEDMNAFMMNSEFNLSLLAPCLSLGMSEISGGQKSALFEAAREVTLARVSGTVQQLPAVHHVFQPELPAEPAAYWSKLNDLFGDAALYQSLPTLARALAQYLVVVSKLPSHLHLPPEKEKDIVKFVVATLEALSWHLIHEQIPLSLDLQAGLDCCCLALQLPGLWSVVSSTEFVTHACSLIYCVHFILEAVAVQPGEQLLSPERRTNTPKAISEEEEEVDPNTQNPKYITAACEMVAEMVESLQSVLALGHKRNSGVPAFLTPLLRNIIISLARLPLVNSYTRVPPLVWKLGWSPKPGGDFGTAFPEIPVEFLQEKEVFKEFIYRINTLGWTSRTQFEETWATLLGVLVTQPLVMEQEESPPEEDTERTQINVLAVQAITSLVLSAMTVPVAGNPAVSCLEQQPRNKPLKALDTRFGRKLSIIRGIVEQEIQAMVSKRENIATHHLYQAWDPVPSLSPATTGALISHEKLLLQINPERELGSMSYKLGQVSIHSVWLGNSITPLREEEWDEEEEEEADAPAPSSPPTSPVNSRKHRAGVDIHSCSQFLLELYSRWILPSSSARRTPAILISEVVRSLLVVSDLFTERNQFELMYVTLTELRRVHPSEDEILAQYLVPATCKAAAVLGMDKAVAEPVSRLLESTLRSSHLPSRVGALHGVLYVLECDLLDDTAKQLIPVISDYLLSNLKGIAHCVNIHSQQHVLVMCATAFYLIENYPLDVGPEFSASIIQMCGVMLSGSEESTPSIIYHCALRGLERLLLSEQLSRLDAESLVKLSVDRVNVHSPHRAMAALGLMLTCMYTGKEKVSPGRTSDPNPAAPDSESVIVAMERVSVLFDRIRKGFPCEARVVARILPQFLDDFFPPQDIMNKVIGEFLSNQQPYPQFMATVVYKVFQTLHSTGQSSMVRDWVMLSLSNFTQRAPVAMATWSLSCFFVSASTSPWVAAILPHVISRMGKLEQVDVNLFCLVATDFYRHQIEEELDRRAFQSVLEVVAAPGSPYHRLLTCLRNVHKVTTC

Experiment in all cases: co-IP; GFP-nanotrap precipitation of GFP-tagged constructs from transiently transfected HEK293-T lysates (50 mM Tris-HCl pH 7.4, 0.5% NP40), 1 h at 4°C; western blot for endogenous Htt and septins
For orientation: Immunoblotting shows a protein as a band on a membrane.

Experiment [1] deals with T1, GFP-SNX20 (GFP-tagged full-length sorting nexin-20) (UniProt Q7Z614).
T1 sequence: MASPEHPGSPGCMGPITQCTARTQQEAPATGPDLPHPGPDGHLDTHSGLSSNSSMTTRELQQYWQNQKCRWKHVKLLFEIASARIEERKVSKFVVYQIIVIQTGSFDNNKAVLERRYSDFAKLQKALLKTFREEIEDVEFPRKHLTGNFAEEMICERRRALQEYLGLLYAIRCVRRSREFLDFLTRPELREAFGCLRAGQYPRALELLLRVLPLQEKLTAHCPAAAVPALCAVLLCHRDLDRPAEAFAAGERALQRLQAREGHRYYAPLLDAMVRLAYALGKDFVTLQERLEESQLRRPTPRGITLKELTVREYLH

Experiment [2] has as its target T2, GFP-SNX20 N-terminal region (residues 1-66) (UniProt Q7Z614).
T2 sequence: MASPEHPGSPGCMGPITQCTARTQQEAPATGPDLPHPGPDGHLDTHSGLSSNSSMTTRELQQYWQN

Experiment [3] concerns the target T3, GFP-SNX21 residues 1-52 (human) (UniProt Q969T3).
T3 sequence: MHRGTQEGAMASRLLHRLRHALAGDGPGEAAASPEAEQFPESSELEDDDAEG

The target in experiment [4] is T4, GFP-SNX21 residues 53-129 (human) (UniProt Q969T3).
T4 sequence: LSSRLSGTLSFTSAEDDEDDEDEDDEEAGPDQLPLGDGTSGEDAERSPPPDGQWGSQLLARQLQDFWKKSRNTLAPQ

Experiment [5] has as its target T5, GFP-SNX21(D48K, D49K) (human) (UniProt Q969T3).
T5 sequence: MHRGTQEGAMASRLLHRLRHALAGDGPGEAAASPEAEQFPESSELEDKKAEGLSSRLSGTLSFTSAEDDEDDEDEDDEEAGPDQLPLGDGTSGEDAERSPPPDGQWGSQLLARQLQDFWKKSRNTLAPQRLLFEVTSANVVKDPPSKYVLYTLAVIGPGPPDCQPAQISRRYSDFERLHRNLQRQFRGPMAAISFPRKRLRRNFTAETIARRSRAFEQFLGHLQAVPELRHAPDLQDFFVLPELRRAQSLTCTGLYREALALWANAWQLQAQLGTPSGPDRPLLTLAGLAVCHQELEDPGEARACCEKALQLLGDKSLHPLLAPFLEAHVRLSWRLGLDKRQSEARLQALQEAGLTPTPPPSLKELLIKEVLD

In experiment [6] the target is T6, GFP-SNX21(L363A) (human) (UniProt Q969T3).
T6 sequence: T5 sequence with K48D, K49D, L363A

Experiment [7] concerns the target T7, GFP-SNX21(Δ41-49) (human) (UniProt Q969T3).
T7 sequence: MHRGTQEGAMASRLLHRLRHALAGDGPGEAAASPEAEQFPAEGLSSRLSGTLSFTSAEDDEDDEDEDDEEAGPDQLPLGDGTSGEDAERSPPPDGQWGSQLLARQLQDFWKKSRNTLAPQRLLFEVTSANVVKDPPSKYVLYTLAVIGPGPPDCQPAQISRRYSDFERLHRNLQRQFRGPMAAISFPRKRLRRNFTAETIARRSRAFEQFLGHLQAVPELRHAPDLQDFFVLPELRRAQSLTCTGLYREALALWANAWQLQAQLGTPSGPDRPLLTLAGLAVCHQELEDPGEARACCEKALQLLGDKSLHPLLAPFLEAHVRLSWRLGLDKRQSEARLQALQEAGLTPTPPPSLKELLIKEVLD

The target in experiment [8] is T8, GFP-SNX21(Δ67-79) (human) (UniProt Q969T3).
T8 sequence: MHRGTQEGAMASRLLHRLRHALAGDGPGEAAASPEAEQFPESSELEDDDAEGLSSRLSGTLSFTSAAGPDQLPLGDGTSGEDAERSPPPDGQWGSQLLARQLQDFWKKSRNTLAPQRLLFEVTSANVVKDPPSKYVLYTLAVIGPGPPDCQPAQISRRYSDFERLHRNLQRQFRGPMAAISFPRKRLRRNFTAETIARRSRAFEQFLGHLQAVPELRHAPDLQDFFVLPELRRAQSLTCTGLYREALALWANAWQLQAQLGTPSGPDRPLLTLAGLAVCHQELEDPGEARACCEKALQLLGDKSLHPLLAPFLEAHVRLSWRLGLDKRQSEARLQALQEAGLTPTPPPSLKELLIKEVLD

For “huntingtin (Htt), endogenous (from UniProt P42858 1-3142)”, the binding entry is “no binding” in experiment [1]; “no binding” in experiment [2]; “no binding” in experiment [3]; “no binding” in experiment [4]; “no binding” in experiment [5]; “binds” in experiment [6]. The figures for the binding result in experiment [7] and in experiment [8] were “no binding” and “binds”, respectively.

Values taken from publication PMC6140323.
